Measurements taken from publication PMC4336329 (PLoS ONE, 2015).
The whole screen tested about 310,000 compounds, of which about 2,200 (0.71%) showed an effect of 50% or more. The effect is printed as a negative number. This is one part of the list.

Molecular target: human ether-à-go-go-related gene (hERG) potassium channel (human, UniProt Q12809)
Assay: primary screen, population patch clamp on CHO cells stably expressing hERG

human ether-à-go-go-related gene (hERG) potassium channel, sequence (Q12809 whole entry, looked up): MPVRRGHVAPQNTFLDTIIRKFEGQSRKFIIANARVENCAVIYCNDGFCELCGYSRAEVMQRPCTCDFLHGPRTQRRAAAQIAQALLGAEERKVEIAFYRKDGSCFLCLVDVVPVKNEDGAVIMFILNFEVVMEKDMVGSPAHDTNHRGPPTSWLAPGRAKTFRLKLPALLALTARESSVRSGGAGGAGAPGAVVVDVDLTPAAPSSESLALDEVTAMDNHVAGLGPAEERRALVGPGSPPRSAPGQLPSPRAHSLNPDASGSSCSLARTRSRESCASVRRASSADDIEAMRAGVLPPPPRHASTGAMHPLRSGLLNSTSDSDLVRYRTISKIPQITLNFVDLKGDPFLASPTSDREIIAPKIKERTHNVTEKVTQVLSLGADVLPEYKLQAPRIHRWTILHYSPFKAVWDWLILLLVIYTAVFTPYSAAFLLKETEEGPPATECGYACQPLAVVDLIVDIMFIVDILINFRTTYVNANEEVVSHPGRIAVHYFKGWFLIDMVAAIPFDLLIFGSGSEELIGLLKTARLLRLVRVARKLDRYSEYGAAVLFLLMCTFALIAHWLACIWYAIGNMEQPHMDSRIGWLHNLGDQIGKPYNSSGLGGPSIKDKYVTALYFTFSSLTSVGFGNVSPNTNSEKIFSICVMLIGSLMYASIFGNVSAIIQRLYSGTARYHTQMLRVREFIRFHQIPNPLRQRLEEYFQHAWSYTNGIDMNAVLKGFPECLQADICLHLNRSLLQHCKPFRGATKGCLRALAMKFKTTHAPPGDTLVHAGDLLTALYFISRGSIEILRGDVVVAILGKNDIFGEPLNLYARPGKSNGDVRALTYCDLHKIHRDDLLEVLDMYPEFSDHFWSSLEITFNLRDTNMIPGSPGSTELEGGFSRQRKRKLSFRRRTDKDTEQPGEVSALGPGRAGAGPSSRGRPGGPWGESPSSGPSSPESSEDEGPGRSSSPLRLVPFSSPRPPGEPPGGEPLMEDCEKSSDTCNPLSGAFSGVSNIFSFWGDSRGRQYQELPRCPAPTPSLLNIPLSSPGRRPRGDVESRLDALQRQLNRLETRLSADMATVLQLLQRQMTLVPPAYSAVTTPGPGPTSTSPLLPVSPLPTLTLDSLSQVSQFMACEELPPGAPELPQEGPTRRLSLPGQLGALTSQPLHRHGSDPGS

Compound | hERG current change (%, negative = inhibition) at 1uM [%]
Cc1ccc2nc(SCC(=O)NCCCN3CCCC3=O)[nH]c2c1 | 3.09
CC(C)(C)C(=O)C[n+]1cccc(C(N)=O)c1.[Br-] | 14.2
Cc1cccc(NC(=O)/C(=C/c2cccc([N+](=O)[O-])c2)NC(=O)c2cccs2)c1 | 4.88
Cc1ccc(N(Cc2cc3ccc(C)cc3[nH]c2=O)S(C)(=O)=O)c(C)c1 | 2.89
COc1ccc(-c2nc(CN(CC3CCC(=O)N3)C(C)C)c(C)o2)c(C)c1C (stereo not shown) | 10.4
N/C(=N\OC(=O)CCC1CCCC1)c1ccccc1 | 7.93
C=C(C)c1ccc(C(C)(C)NC(=O)N2CCN(C)CC2)cc1 | -9.43
O=C(Nc1ccccc1)N(CCc1nc2ccccc2[nH]1)C1CCCC1 | 16.7
CN(C)CCn1c(COc2ccccc2)nc2ccccc21.Cl.O | -5.79
CCOC(=O)C(CC)/C(C)=N/NC(=O)c1ccc([N+](=O)[O-])cc1 (stereo not shown) | 3.8
COc1ccc(C(=O)N2CCNC(=O)C2CC(=O)Nc2cc(Cl)ccc2OC)cc1 (stereo not shown) | 9.33
CCN(CC)c1ccc(NC(=O)CN2CCN(c3ccccc3F)CC2)cc1 | 7.06
CCOC(=O)CCc1c(C)nc(SCCCn2c(=O)[nH]c3ccccc32)c(C#N)c1C | 11.4
CCOC(=O)c1c(C)nc2c(c1-c1cc(OC)c(OC)c(OC)c1)C(=O)c1ccccc1-2 | 2.39
CCC1CCC/C1=N\NC(=O)c1ccccc1C (stereo not shown) | 11.4
COC(=O)c1ccc(NC(=O)CSCc2ccccc2)cc1 | -3.42
COc1ccc(N2C(=O)CN(Cc3ccc(OC)c(OC)c3)C2=S)cc1 | 9.48
C#CCn1c(O)c(N=NC(=O)C(O)c2ccccc2)c2ccccc21 (stereo not shown) | -1.22
Cc1cc(SCC(=O)OCC(=O)N(C)C2CCS(=O)(=O)C2)c(C)cc1Br (stereo not shown) | -1.02
Cc1cc(F)ccc1S(=O)(=O)N1CCCOC1CNC(=O)C(=O)NC1CCCCC1 (stereo not shown) | 4.3
N#Cc1c(/N=C/c2cc(Br)cs2)sc2c1CCC2 | 10.4
COc1ccc(S(=O)(=O)NCCCn2ccnc2)cc1Cl | 8.36
CCN(CC)C(=O)COc1ccc(/C(C)=N/NC(=O)c2ccccc2-n2cccc2)cc1 | 12.1
COc1cccc(/C=N/NC(=O)c2cnccn2)c1OC | 10.3
Cn1ccc(=Nc2ccc(NC(=O)c3ccc(N=c4ccn(C)c5ccc([N+](=O)[O-])cc45)cc3)cc2)cc1 | 13.3
